B1: LINE1-mini (parent)
chain: GGCAGAGCUCAACACAGCGUGGCAAAGUGGCUGUGGCUAGACUGCC

Read counts are not given, so values of variants with three or more changes are uncertain.

Variants of B1 are the subject of the data set. The data set can be described thus: self-cleavage, relative activity (ratio to wild type); higher = more cleavage; in vitro, sequencing; the parent is a self-cleaving ribozyme.
For the variant GGCAGUGCGCAACACACCGUGGCAAAGUGGCUGUGGCUAGACUGCC [A6U U9G G17C], the self-cleavage turned out to be 0.42.
As for GGCAGAGCUCAACGCAGCCUGGCCAAGUGGCUGUGGCAAGACUGCC [A14G G19C A24C U38A], the figure is 0.09; as for AGCAUAGCUCAACACAGCGUGGCAAAGUGGCUGUGGCUAGACUGCA [G1A G5U C46A], 0.04.
Then GGAAUAGCAGAACACACCGUGGCAAAGUGGCUGUGGCUAGACUGCC [C3A G5U U9A C10G G17C], with 0.05; and GGCAGAGCUGAAUACAGCGUGGCAAAGUUGCUGUGGCUAGACUGCC [C10G C13U G29U], with 0.03; and GGCAGACCGCAACACACCGUGGCAAAGUGGGUGUGGCUAGACUGCC [G7C U9G G17C C31G], with 0.05.
Consider GGCAGAGCUCAACACAGCGUGGCAAAGUGGCUGUGGCUUGUAUGCC [A39U A41U C42A], for which the self-cleavage turned out to be 0.01.
As to GGCAGAGCCCAACACACCGUGGCAAAGUGGCAGUGGCUAGACUGCC [U9C G17C U32A], the self-cleavage was found to be 0.04.
As for GGCAGAUCACAACACCGCGUGGCAAAGUGGAUGUGGCUAGACUGCC [G7U U9A A16C C31A], the figure is 0.21; as for GGCAGAGCUCAAAACAGCGUGGAUAAGUGGCUGUGGCUAGACUGCC [C13A C23A A24U], 0.02; as for GGCAGAGCCCAACACAGCGGGGCAAAGAGGCUGUGUCUAGACUGCC [U9C U20G U28A G36U], 0.03.
As for GGCAAAGCUCAACACAGCGUGGCAAAGCUGCUGUGGCUAGACUGCC [G5A U28C G29U], the figure is 0.12; as for GUCAGAGCUCAACACAGCGCGGCAAAGUGACUGUGGCUAGACUGCC [G2U U20C G30A], 0.11.
As for GGCAGAGCUCAACAUCGCGGGGCAAAAAGGCUGUGGCUACACUGCC [C15U A16C U20G G27A U28A G40C], the self-cleavage turned out to be 0.04.
As for GGCAGAGCUCAACACAGUGUGGCAAAGGGGCUGUAGCUAGACUGCC [C18U U28G G35A], the figure is 0.03; as for GGCAGAGCUCAACAUAGCGUGGCAGAGUGGGUGUGGGAAGAAUGCC [C15U A25G C31G C37G U38A C42A], 0.03.
As for UGCAGAGCUCAACGCAGCGUGGCAAAGUGGCUGAGGCUAGACUGCC [G1U A14G U34A], the figure is 0.03.
Then GACAGAGCUCAACACAGCGAGGCAAAGUGGCUGGUGCUAGACUGCC [G2A U20A U34G G35U], with 0.18; and GGCAGAGCUCAACACAGCGUGGCAUAGUGGCUGUGGCAAAACUGCC [A25U U38A G40A], with 0.16; and GGCCGCGCUCAACACGGCAUGGCAAAGUGGCUGUGGCUAGACCGCC [A4C A6C A16G G19A U43C], with 0.02.
GAUAGACCUCAACACAGCGUUGUAAAUUGGCUCUGGCUAGACUGCC [G2A C3U G7C G21U C23U G27U G33C]: the self-cleavage is 0.29.
Then GGCAGAGCUCAACACAGCGUGGCAGAGUAGCAGUGGCUAGACUGCC [A25G G29A U32A], with 0.01.
Take GGCAGCGAUCAACACAGCGUGGCAAAGUGUCUGUGGCAACACUGCC [A6C C8A G30U U38A G40C]: the self-cleavage stood at 0.2.
As for GGCAGAGAUCAAAACAGCGUGGCAAAGUGGCUGUGGCGAGAAUGCC [C8A C13A U38G C42A], the figure is 0.07; as for GGCAGAGCUCAAUACAGCUUUGCAAAGUGGCUGUGGCUAGGCUGCC [C13U G19U G21U A41G], 0.04; as for GGCAGAGCUCAAGACAGCGUUGCAAAGUGGCGGUGGCUAGAGUGCA [C13G G21U U32G C42G C46A], 0.02.
For GUCAUAGCUCAACAAAGCGCGGCAAAGUGGCUGUGGCUAGACUGCC [G2U G5U C15A U20C], the self-cleavage is 0.03.
As for GGCAGAGCUCAACACCGCGUGGAAAAUUGGCUGUGGCUAGACUGCC [A16C C23A G27U], the figure is 1.01.
With GGCAGAGCGGAACACAGCGUGGCAAAGUGACUGUGGCUAGACUGCC [U9G C10G G30A], the self-cleavage worked out at 0.01.
As for GGCAGAGCUCAACACAGCGUGGCGAAGUGGCUGUGGCUAAACUGGC [A24G G40A C45G], the figure is 0.07; as for GGCUGAGCUCAACACUGCGUGGCAAAGUGGCUGGGGCGAGACUGCC [A4U A16U U34G U38G], 0; as for GUCAGAGUUUAACACAGCGUGGCAAAGUGGCCGUGGCUAGCCUGCC [G2U C8U C10U U32C A41C], 0.04.
As for GGCAGACCGCAACAGAGCGUGGCAAAGUGGCUGUGGCUAGACUGCC [G7C U9G C15G], the figure is 0.1.
As for GCCAGAGCUCAACACAGCGUGGCAAAGUGGCUCUGGCUAGACUGCA [G2C G33C C46A], the figure is 0.04.
For GGCAGAGCUCAACAGAGCGGGGCAAAGUGGUUGUGGCUGGACUGCC [C15G U20G C31U A39G], the self-cleavage amounted to 0.02.
As to GGCAGAGCUCAAAACAGCGUUGUAAAGUGGCUUCGGCUAGACUGCC [C13A G21U C23U G33U U34C], the self-cleavage was 0.34.
Turning to GGCAGAGCUCGUCACACCGUGCCACAGUGGCUCUGGCUAGACUGCC [A11G A12U G17C G22C A25C G33C], the self-cleavage stood at 0.
As for GGCAGAGCUCACCACAGCGUCGCAAAGUGGCUUUGGCUAGACUGGC [A12C G21C G33U C45G], the figure is 0.01; as for UGCAGAGCUUAACACAGCGUGGCAAAGUGGCUGUGGCUAGACUGAC [G1U C10U C45A], 0.63.
In the case of GGCAGAGCUCAACACAGCGUGGCAAAGUUGCUUUGGCUAGACGGCC [G29U G33U U43G], the self-cleavage is 0.
Then GGCAGAGCUCAACACAGCGUGGCAAAGUGGCUGUGGCAAGACCGCU [U38A U43C C46U], with 0.15.
Then GGCAGAGCGGAACACAGCGUGGCAAAGUGUCUGUGGCUACACUGCC [U9G C10G G30U G40C], with 0.01; and GGCAGAGCUCAACACAGCGCGGCAAAGAGGCGGUGGCUAGACUGCC [U20C U28A U32G], with 0.09; and GUCAGAGCUCAUCACAGCGUGGCAAACUGGCUGUGGCUAGACUUCC [G2U A12U G27C G44U], with 0.02.
For the variant GGCCGAGCUCAAGACAGCGUGGCAUAGUGGCUGUAGUUAGACUGCC [A4C C13G A25U G35A C37U], the self-cleavage was 0.06.
As for GGCAGAGCUCAAUACAGCGUGGCCAAGGGGCUGUGGCUACACUGCC [C13U A24C U28G G40C], the figure is 0.03; as for GGCAGAGUUGAACACAGCGUGGCAGAGUGGCUAUGGCUAUACUGCC [C8U C10G A25G G33A G40U], 0.01; as for GGCAGAGCUAAACACAGCGUGGCAAAGUGUCUAGGGCUAGACUGCC [C10A G30U G33A U34G], 0.01.
As for GGCAGAGCUCAACUCCGUGUGGCAAAGUGGCUGUGGCUAGACUGCC [A14U A16C C18U], the figure is 0.22; as for AGCAGAGCUCAACACAGCAUGGCAAAGUGGCUGAGGCAAUUCUGCC [G1A G19A U34A U38A G40U A41U], 0.06; as for GGCAGAGCUCAACACAGCGCGGCAUAGGGACUGUGGCUAGACUGCC [U20C A25U U28G G30A], 0.27.
Then GGCAGAACUCGACACAGCGUGGCAAAGGGGCUGUGGCUUGACUGCC [G7A A11G U28G A39U], with 0.01; and AGCAGAGCUAAACAGAGCGUGGCAAAGUGGCUGUGGCUAGACUGCC [G1A C10A C15G], with 0.09.
As for GGCAGAGCUCCACAUAGCGUGGCAAAGUGGCUGUGGCUAAACUGCA [A11C C15U G40A C46A], the self-cleavage amounted to 0.01.
In the case of GGCAGAGCUCAACACAGCGUGGCAAUGUGGCUGUGCGUAUAAUGCC [A26U G36C C37G G40U C42A], the self-cleavage stood at 0.06.
For GGCAGAGCUCAAGACAGCGUGGCAAAGUGGUUGUGGCUACACUGCU [C13G C31U G40C C46U], the self-cleavage turned out to be 0.01.

The record behind these values is the RNAGym collection of RNA variant scans (doi:10.7554/elife.90254).
